Experimental data: paper PMC4336329 (PLoS ONE, 2015)
The whole screen tested about 310,000 compounds, of which about 14,000 (4.5%) showed an effect of 50% or more. Effects have a minus sign here. This is one part of the list.

The molecules below were run against human ether-à-go-go-related gene (hERG) potassium channel (human, UniProt Q12809) (assay: primary screen, population patch clamp on CHO cells stably expressing hERG).
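Further: peak tail current of the secondary pulse compared with the same well before compound.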

human ether-à-go-go-related gene (hERG) potassium channel, sequence (Q12809 whole entry, looked up): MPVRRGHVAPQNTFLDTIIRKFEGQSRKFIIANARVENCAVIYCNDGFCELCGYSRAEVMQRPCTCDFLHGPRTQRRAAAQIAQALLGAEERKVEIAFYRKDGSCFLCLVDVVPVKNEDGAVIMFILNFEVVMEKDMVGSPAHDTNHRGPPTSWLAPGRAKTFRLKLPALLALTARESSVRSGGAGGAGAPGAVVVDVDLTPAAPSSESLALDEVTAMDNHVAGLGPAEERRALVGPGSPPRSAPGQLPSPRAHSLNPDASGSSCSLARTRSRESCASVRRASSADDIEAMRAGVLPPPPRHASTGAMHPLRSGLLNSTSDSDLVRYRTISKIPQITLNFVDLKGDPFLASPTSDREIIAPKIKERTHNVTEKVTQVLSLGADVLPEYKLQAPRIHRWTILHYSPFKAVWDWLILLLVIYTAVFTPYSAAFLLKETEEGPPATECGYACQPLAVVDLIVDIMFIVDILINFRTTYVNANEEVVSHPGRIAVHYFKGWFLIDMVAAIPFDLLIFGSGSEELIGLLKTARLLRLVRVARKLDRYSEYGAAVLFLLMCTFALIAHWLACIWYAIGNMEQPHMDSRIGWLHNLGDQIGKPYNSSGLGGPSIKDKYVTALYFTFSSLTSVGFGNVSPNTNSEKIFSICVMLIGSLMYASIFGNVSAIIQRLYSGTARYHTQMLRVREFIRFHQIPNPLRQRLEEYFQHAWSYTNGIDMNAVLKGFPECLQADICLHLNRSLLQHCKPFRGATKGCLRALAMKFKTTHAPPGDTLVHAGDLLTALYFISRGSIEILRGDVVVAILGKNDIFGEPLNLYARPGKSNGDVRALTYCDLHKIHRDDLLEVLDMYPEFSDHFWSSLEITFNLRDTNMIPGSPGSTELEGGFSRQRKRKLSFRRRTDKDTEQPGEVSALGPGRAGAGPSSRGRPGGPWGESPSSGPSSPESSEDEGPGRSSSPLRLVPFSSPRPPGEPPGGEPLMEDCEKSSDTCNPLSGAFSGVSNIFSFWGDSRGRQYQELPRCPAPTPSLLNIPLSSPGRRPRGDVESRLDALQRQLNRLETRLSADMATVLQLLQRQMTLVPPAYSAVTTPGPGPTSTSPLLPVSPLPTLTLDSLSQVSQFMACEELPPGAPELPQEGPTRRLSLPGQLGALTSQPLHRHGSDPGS

SMILES	hERG current change (%, negative = inhibition) at 10uM [%]
CCOc1ccc(NC(=O)CCNS(=O)(=O)c2ccc3c(c2)oc(=O)n3C)cc1	13.2
O=S(=O)(c1ccccc1)c1ccc(C(F)(F)F)cn1	12.7
CCCCN(C(=O)CC1CCCCC1)c1c(N)n(CC(C)C)c(=O)[nH]c1=O	1.32
C=CCn1c(-c2cc3c(s2)CCC(CC)C3)n[nH]c1=S (stereo not drawn)	7.79
NS(=O)(=O)c1cnccc1Nc1ccc(Cl)cc1	-6.71
CCOC(=O)c1ccccc1N1C(=O)CSC1=S	8.78
CN(NC1OC(=O)c2ccccc21)c1ccc(Cl)cc1[N+](=O)[O-] (stereo not drawn)	6.32
COc1ccccc1N(CC(=O)NCCSc1ccccc1)S(=O)(=O)c1ccccc1	-13.2
CCSc1nc(C)nc2c1oc1ccccc12	12.3
CN(Cc1ccccc1NC(=O)c1ccc(S(=O)(=O)N(C)C)cc1)C1CCCCC1	-2.72
Cc1ccc2[nH]cc(S(=O)(=O)c3ccc(C(C)C)cc3)c(=O)c2c1	25.5
O=C(/C=C/c1cccc([N+](=O)[O-])c1)N1CCOCC1	-3.86
Cc1ccccc1Oc1nc2c(C)cccn2c(=O)c1/C=C(\C#N)C(=O)Nc1c(C)n(C)n(-c2ccccc2)c1=O	-1.62
Cc1cnc(NC(=O)C2CCCC2)s1	23.2
COc1ccc(C[C@](C)(N)C(=O)O)cc1OC.Cl	7.36
O=C(Cc1ccccc1)Nc1c2c(nn1-c1cccc(Cl)c1)CS(=O)(=O)C2	-76.2
Cc1ccc(C)c(S(=O)(=O)NCCCN2CCOCC2)c1	10.6
Nc1cc2nc3ccccc3oc-2cc1=O	3.38
COc1ccc([C@H]2CC(=O)C=C(c3ccc(C)c([N+](=O)[O-])c3)C2)cc1	21.2
Cc1ccc(C(=O)N2CCCC(C(=O)Nc3cccc(-c4ccc(F)cc4)c3)C2)cn1 (stereo not drawn)	-29.1
COc1ccc(OC)c(NC(=O)CCNS(=O)(=O)c2cccc3nsnc23)c1	-5.2
COc1ccc(C2C(C#N)=C(N)Oc3cc(C)n(CCN4CCOCC4)c(=O)c32)cc1OC (stereo not drawn)	14.6

SMILES	hERG current change (%, negative = inhibition) at 10uM [%]
O=C(Nc1c(C(=O)N2CCOCC2)cnn1-c1ccccc1)c1ccc([N+](=O)[O-])cc1	-16
O=C(CSc1nnc2ccccn12)NC(=O)c1ccccc1	-0.549
CC(Sc1nc(-c2ccccc2)cc(C(F)(F)F)n1)C(=O)N1CCOCC1 (stereo not drawn)	-3.84
CC(=O)Nc1nc2c(F)cccc2s1	4.78
COC(=O)c1ccc(COc2ccc(C#N)cc2)o1	4.61
COC(CNC(=O)c1cc(S(=O)(=O)N2CCc3ccccc32)ccc1F)OC	8.18
CC(C)[C@H](NC(=O)[C@@H]1Cc2c([nH]c3ccccc23)C2c3ccccc3C(=O)N21)C(=O)N1CCC[C@@H]1C(=O)O (stereo partly drawn)	16.9
Cc1cc(Cl)ccc1OCC(=O)N[C@@H](Cc1ccccc1)c1nc2ccccc2[nH]1	-18.5
Cc1cc(Cl)ccc1OCC(=O)NNC(=O)C1CCN(c2ncnc3sc(C)c(C)c23)CC1	5.64
Cc1ccc(NC(=O)Nc2ccccc2CC[N+](=O)[O-])cc1	8.47
CCc1ccc(NC(=O)C(C)OC(=O)/C=C/c2cccc([N+](=O)[O-])c2)cc1 (stereo not drawn)	-9.12
CC1(C)CC(=O)C=C(NC2CCCCC2)C1	9.87
CCc1ccc(C2C(C#N)=C(N)Oc3cc(N)ccc32)cc1 (stereo not drawn)	-2.05
CC(=O)N1CCc2cc(S(=O)(=O)NC(C(=O)NC(C)c3ccccc3)C(C)C)ccc21 (stereo not drawn)	25.6
COc1cccc2c1[C@@H]1CN(CCCCn3c(=O)[nH]c4c(sc5ncc(-c6ccccc6)nc54)c3=O)C[C@@H]1CO2.Cl	-67.6
CCNC(=O)/C(=C/c1ccco1)NC(=O)/C=C/c1ccccc1	16.6
COc1cc(/C=C/C(=O)Nc2ccccc2C(F)(F)F)cc(OC)c1OC	-5.76
C/C(Cl)=C/Cn1c(N2CCCC2)nc2c1c(=O)[nH]c(=O)n2C	-29.9
CCOC(=O)CC(NS(=O)(=O)c1ccc(OC)c(C)c1)c1cccc([N+](=O)[O-])c1 (stereo not drawn)	-24.8
CCOC(=O)c1ccc(N(C(=O)c2ccco2)C(C(=O)NC2CCCCC2)c2ccncc2)cc1 (stereo not drawn)	9.01
CCC(=O)NCCn1ccc2ccccc21	5.88
CCOC(=O)C1CCN(Cc2cnc(Oc3ccc(Cl)cc3C)s2)CC1	-33.3

SMILES	hERG current change (%, negative = inhibition) at 10uM [%]
COc1ccc(OC)c(NC(=O)CSc2nnc(Cc3cccn3C)n2-c2ccc(F)cc2)c1	-10.4
Cc1ccc(CNC(=O)Cn2cnc(S(=O)(=O)N3CCCCC3)c2)o1	-2.35
O=[N+]([O-])c1ccc(Cl)c(-c2ccc(/C=N/c3c(-c4ccco4)nc4ccccn34)o2)c1	8.5
O=C(C1=C(O)C(=O)N(CCCN2CCOCC2)C1c1ccc(Cl)cc1)c1cc2ccccc2o1 (stereo not drawn)	18.9
CC(C#N)(NC(=O)CN1CCN(S(=O)(=O)c2ccccc2C#N)CC1)C1CC1 (stereo not drawn)	2.51
O=C(COC(=O)c1ncc(Cl)c(Cl)c1Cl)NCc1ccccc1	2.42
CCOc1ccc(C(=O)NC2CCCCCCC2)cc1	4.13
O=C1C(=O)N(CCN2CCOCC2)C(c2ccc([N+](=O)[O-])cc2)/C1=C(/O)c1ccc2c(c1)OCO2 (stereo not drawn)	17
Cc1c(C(C)C)c(=O)n(-c2ccc(S(=O)(=O)NC(C)C)cc2)n1C	11.3
CCCCNC(=O)c1ccc(CS(=O)(=O)c2ccccc2OC)o1	-2.53
Cc1ccc(C)c(OCCCNC2CCCC2)c1C.O=C(O)C(=O)O	-10.3
O=C(O)Cc1csc(-c2ccc(F)cc2)n1	11.5
Cc1cccc(NC(=O)COC(=O)c2cccs2)c1C	18.4
Cc1cc(OCCCn2ccnc2)ccc1C(C)C	14
CSc1nc(C)c2c(c1C#N)CCCC2	-4.98
CC(=O)c1c(C)[nH]c(C(=O)NCc2ccccn2)c1C	16.8
COc1ccc(N(C(=O)c2ccco2)C(C(=O)NC2CCCCC2)c2cccs2)cc1OC (stereo not drawn)	-8.89
Cc1csc(=O)n1CCC(=O)OCC(=O)Nc1ccc(Cl)cn1	-21.9
COc1ccccc1NC(=O)COc1ccc(/C=N/NC(=O)CSCc2ccc(Cl)cc2)cc1	-4.1
COc1ccc([N+](=O)[O-])cc1NC(=O)Cc1ccc(Cl)cc1	3.93
Cc1ccccc1OCCn1c(=S)[nH]c2c(N)ncnc21	21
Cc1occc1-c1nnc(SCC(=O)NCc2cccs2)n1-c1ccc(F)cc1	-60.2

SMILES	hERG current change (%, negative = inhibition) at 10uM [%]
O=C(COC(=O)CCC1CCCC1)Nc1ccccc1Br	5
CC(=O)Nc1ccccc1OCC(=O)c1cc(C)n(Cc2cccs2)c1C	-21
CCC(C)C(NC(=O)C1CCC(=O)N1C(=O)OCc1ccccc1)C(=O)NC(C(=O)N1CCCC1C(N)=O)C(C)CC (stereo not drawn)	10.9
COc1cccc(S(=O)(=O)N2CCOCC2)c1	-2.38
O=C(/C=C/c1ccco1)NCCCN1CCOCC1	12.9
COC(=O)Nc1sccc1C(=O)Nc1sccc1C(=O)OC	1.71
COc1ccccc1N1C(=S)N=C(Nc2c(C)cccc2C)C12CCCC2	10.5
CC1CCCC(C)N1C(=O)CSc1nnc(C2CCCCC2)o1 (stereo not drawn)	-8.48
O=C(/C=C/c1ccc(S(=O)(=O)N2CCOCC2)cc1)NC(=S)Nc1ccc(N2CCOCC2)cc1	18.5
Cc1cccc(N2CCN(C(=O)Cc3ccc(Br)cc3)CC2)c1C	-11.3
Cc1ccc(/C=C/c2ccc(=O)n(Cc3ccc(F)cc3)n2)cc1	2.5
COc1ccc(/C=C2/Sc3ccc(C(=O)N4CCc5ccccc5C4)cc3NC2=O)cc1	3.04
CC(=O)Nc1nc(-c2ccccc2)nc(C)c1C(C)=O	-5.89
c1ccc2sc(C3CCN(Cc4nnnn4Cc4ccc5c(c4)OCO5)CC3)nc2c1	-8.73
COc1ccccc1CNC(=O)CCn1c(=O)[nH]c2ccsc2c1=O	0.279
Cc1cccc(N2CCN(C(=O)CSc3nc4ccccc4nc3N3CC(C)OC(C)C3)CC2)c1C (stereo not drawn)	10.5
O=C(NCC1COc2ccccc2O1)C1CCN(S(=O)(=O)c2cccc3nsnc23)CC1 (stereo not drawn)	4.15
O=C(NC1CCN(S(=O)(=O)c2ccc(F)cc2)CC1)c1ccco1	16.8
CN(C)c1ccc(C2N(C)C(=O)c3ccccc3N2C)cc1 (stereo not drawn)	7.9
O=C(N/C(=C\c1cccs1)C(=O)N1CCOCC1)c1ccco1	0.17
Cc1cc(C)cc(NC(=O)C2(c3cccs3)CCOCC2)c1	-8.59
